Among all 420,000 compounds or so, about 64,000 (15%) were called active. This list was built around the results that the source calls inconclusive (neither active nor inactive); the mix of calls is not that of the screen. The call rests on the fitted dose curve; in most records, active means well fitted inhibition curve with a large enough effect; inconclusive means small, poorly fitted or top-dose-only effect; inactive means flat fitted curve, though single readings scatter. No potency is given beside an inconclusive call; the fits are too rough.
Assay: qHTS for Inhibitors of human tyrosyl-DNA phosphodiesterase 1 (TDP1): qHTS in cells in absence of CPT; further: nearly all actives have a fitted effect of over 55% in size
Conditions: DT40 Tdp1-/- hTDP1 cells, no CPT, ATP luminescence, 48 h; activity change, negative = growth inhibition: at 46.2 µM (top of the series) unless noted
Procedure, shortened: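 A cellular qHTS used chicken DT40 cells lacking endogenous Tdp1 but carrying stably transfected human TDP1. Compounds were applied without camptothecin, and cell growth kinetics were judged by ATP-dependent luminescence after ≥48 hr.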
On the % scale 0 is the no-effect control and ±100 the full control effect; potency means the concentration at half of the fitted maximal effect; tags describe the fitted curve by direction and shape.

SMILES | Potency | activity change, negative = growth inhibition
CCCCNC(=O)c1onc(CSc2cccc(OC)c2)c1C(=O)NCCCC | inconclusive [inhibitor, single point] | 
Cc1ccc(C)c(OCCC(=O)N2CCN(S(=O)(=O)c3ccc([N+](=O)[O-])cc3)CC2)c1 | inconclusive [inhibitor, partial curve, poor fit] | 
CC(=O)Nc1ccc(NC(=O)CSc2ncc(C(=O)Nc3ccc(Cl)cc3)c(=O)n2C)cc1 | inconclusive [inhibitor, single point] | 
CN(CC(=O)NCCC1=CCCCC1)S(=O)(=O)c1ccc2c(c1)c(=O)n(C)c(=O)n2C | inconclusive [inhibitor, partial curve] | 
Fc1ccc(Nc2ccnc(-c3ccccc3C(F)(F)F)n2)cc1 | inconclusive [inhibitor, single point] | 
Cc1cc(-c2nc3cccnc3s2)ccc1NS(=O)(=O)c1ccc2c(c1)OCCO2 | inactive | 
O=C(OCC(=O)N(Cc1ccccc1)Cc1ccccc1)c1cccc(O)c1 | inconclusive [inhibitor, partial curve, poor fit] | 
CCOc1ccc(-c2nonc2NC(=O)c2oc3cc(C)ccc3c2C)cc1 | inconclusive [inhibitor, single point] | 
CCn1c(C(=O)NC(C)c2ccc3c(c2)OCCO3)cc2sccc21 (stereo not given) | inconclusive [inhibitor, partial curve] | 
CCCCSCCCNC(=O)CN1C(=O)c2cccnc2Oc2ccc(Cl)cc21 | inconclusive [inhibitor, single point] | 
COc1cccc(NC(=S)NNC(=O)Cn2nc(C(F)(F)F)cc2C)c1 |  | inconclusive: -12% [inhibitor]
CC(NC(=O)/C(=C\c1ccco1)NC(=O)c1ccco1)C(=O)O (stereo not given) | inactive | 
O=C(NN=Cc1cc(Br)c(O)c(Br)c1)c1ccccc1NS(=O)(=O)c1cccs1 | inactive | 
CC(C)(C)c1ccccc1OCCOCCSc1ncccn1 | inconclusive [inhibitor, partial curve] | 
CS/C(=N\S(=O)(=O)c1cccs1)Nc1ccc(N2CCOCC2)cc1 | inconclusive [inhibitor, single point] | 
N#CC1(NC(=O)CSc2nnc(COc3ccccc3F)n2N)CCCCC1 | inactive | 
O=C1Nc2cccnc2N(C(=O)CCl)c2ccccc21 | active: 2.59 µM | 
CC(C)CC(N)c1csc(NC(=O)C(c2ccccc2)c2ccccc2)n1 (stereo not given) | active: 6.51 µM | 
CC(NC(=S)NNS(=O)(=O)c1cccc([N+](=O)[O-])c1)c1ccccc1 (stereo not given) | inactive | 
CC(C)N1CCc2c(sc(NC(=O)c3ccc(C(=O)c4ccccc4)cc3)c2C(N)=O)C1 | active: 23.1 µM | 
Fc1ccc(-c2noc3ncnc(N4CCN(c5ccccc5)CC4)c23)cc1 | inconclusive [inhibitor, single point] | 
N#Cc1ccc(COC(=O)c2ccc(N3CCCC3)c([N+](=O)[O-])c2)cc1 | inconclusive [inhibitor, single point] | 
Cc1ccc(-n2c(SCC(=O)N/N=C/c3c(C)nn(-c4ccccc4)c3C)nc3ccccc3c2=O)cc1 | inconclusive [inhibitor, single point] | 

SMILES | Potency | activity change, negative = growth inhibition
CCCCC(OC(=O)CN1C(=O)COc2ccccc21)C(=O)NC1CCCCC1 (stereo not given) | active: 16.4 µM | 
Cn1c(=O)c(C(=O)c2ccc(S(C)(=O)=O)c(Cl)c2Cl)c(O)c2ccccc21 | inconclusive [inhibitor, single point] | 
Cc1cn2c(=O)cc(COc3cccc(NC(=O)c4ccccc4C)c3)nc2s1 | inconclusive [inhibitor, single point] | 
O=C(Nc1ccccc1N1CCOCC1)C1(c2ccc(Cl)cc2)CCC1 | inconclusive [inhibitor, single point] | 
CCN(Cc1ccccc1)S(=O)(=O)CCNC(=O)c1ccc(OC)cc1 | inactive | 
COc1ccc(NC(C)=O)cc1NC(C)C(=O)Nc1cccc(S(=O)(=O)N2CCOCC2)c1 (stereo not given) | inactive | 
CC(=O)N1CCOc2cc(S(=O)(=O)Nc3cccc(C(F)(F)F)c3)c(Cl)cc21 | inconclusive [inhibitor, single point] | 
Cc1cccc2cc(-c3nc4c(C)cccn4c3NCc3ccco3)c(=O)[nH]c12 | inconclusive [inhibitor, single point] | 
CCc1cccc(-n2c(C)nc3c(cnn3-c3ccc(Cl)cc3)c2=O)c1 | active: 4.11 µM | 
O=C(/C=C/c1c(Cl)cccc1Cl)NCc1ccco1 | active: 5.8 µM | 
CCOC(=O)c1ccccc1NC(=O)C(=O)Nc1ccc2nc3n(c(=O)c2c1)CCCCC3 | inactive | 
NNc1nc(Nc2ccccc2)nc(Nc2ccccc2)n1 | inconclusive [inhibitor, single point] | 
CNc1nc(NCc2ccccc2)c2sccc2n1 | active: 16.4 µM | 
O=c1c2ccccc2[nH]c2ccc(F)cc12 | active: 9.2 µM | 
Cc1cc(C)cc(NC(=O)N2CCC(N3CCCCC3)CC2)c1 | inactive | 
O=C(Nc1ccc(Cl)cc1)Nc1nnc(CSCc2ccc(Cl)cc2)s1 | active: 4.11 µM | 
COc1cc(NC(=O)C2CC(c3ccc(Cl)cc3)=NO2)cc(OC)c1OC (stereo not given) | inconclusive [inhibitor, partial curve, poor fit] | 
COc1cccc(NC(=O)c2ccc(N3C(=O)C4CC=CCC4C3=O)cc2)c1 (stereo not given) | inconclusive [inhibitor, partial curve] | 
CN1CCC(OC(=O)COc2ccc(Cl)cc2Cl)CC1 | inactive | 
Cc1nnc(SCC(=O)N/N=C/c2cn(-c3ccccc3)nc2-c2ccc(F)cc2)n1-c1ccccc1 | inconclusive [inhibitor, single point] | 
COc1ccc(OC)c(NC(=O)Cc2coc3ccc(C(C)C)cc23)c1 | inconclusive [inhibitor, single point] | 
Cc1cc(C)c2nc(-c3ccncc3)cc(C(=O)N3CCN(Cc4ccccc4Cl)CC3)c2c1 | inconclusive [inhibitor, single point] | 
